Experimental findings from paper PMC12820563, “FoxP3 forms a head-to-head dimer in vivo and stabilizes its multimerization on adjacent microsatellites” are described below.

The other results are listed elsewhere or left out.

The test addresses T1, MBP-FoxP1dN (Mus musculus, UniProt P58462 326-579).
T1 sequence: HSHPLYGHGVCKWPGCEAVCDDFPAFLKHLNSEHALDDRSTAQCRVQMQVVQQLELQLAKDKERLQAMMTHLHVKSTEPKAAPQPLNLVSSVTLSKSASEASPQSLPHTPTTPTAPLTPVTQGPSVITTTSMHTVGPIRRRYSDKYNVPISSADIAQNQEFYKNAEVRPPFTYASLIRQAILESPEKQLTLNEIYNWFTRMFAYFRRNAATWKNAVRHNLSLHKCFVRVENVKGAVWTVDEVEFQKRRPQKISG
The experiment in a line: PD-seq (MBP pull-down with sequencing); 20 mM Tris-HCl pH 7.5, 100 mM NaCl, 1.5 mM MgCl2, 0.4 uM protein, 0.1 uM dsDNA library, 30 min, room temperature, amylose pull-down; high values mean tight binding. Conditions: protein: recombinant; tags: His6-MBP; chain copies: 2; dsDNA, one strand shown. The procedure, abridged:
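E. coli-expressed mouse FoxP3 or FoxP1 fragment, N-terminus removed and tagged with His6-MBP, was used at 0.4 µM against 0.1 µM of a Klenow-filled degenerate double-stranded DNA library. After 30 min at room temperature in Tris pH 7.5 buffer with NaCl and MgCl2, complexes were pulled down on amylose resin and washed three times. Binding is pull-down over input reads-per-million enrichment from pooled replicates of the proteinase K-released, PCR-barcoded, Illumina-sequenced DNA.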
On to “GATGATTGTTCTCCCAGCTGATGAATTAGTAGTTTCGAGTAAACAAATTTTCCTAATCTTTCTGTTCAAGCGCCATCTAC”, for which the binding signal is 1.03 RPM ratio (pull-down/input).

Turning to “GATGATTGTTCTCCCAGCTGATGAATTCAGCGTGTCGAGTAAACAAATTTTCCTAATCTTTCTGTTCAAGCGCCATCTAC”, the binding signal is 0.872 RPM ratio (pull-down/input).

For “GATGATTGTTCTCCCAGCTGATGAATTTTGTTCATCGAGTAAACAAATTTTCCTAATCTTTCTGTTCAAGCGCCATCTAC”, the binding signal is 1.1 RPM ratio (pull-down/input).

On to “GATGATTGTTCTCCCAGCTGATGAATTTAAGGAGTCGAGTAAACAAATTTTCCTAATCTTTCTGTTCAAGCGCCATCTAC”, for which the binding signal was 0.82 RPM ratio (pull-down/input).

Take “GATGATTGTTCTCCCAGCTGATGAATTCTATCGATCGAGTAAACAAATTTTCCTAATCTTTCTGTTCAAGCGCCATCTAC”: the binding signal was 0.92 RPM ratio (pull-down/input).

For the sequence “GATGATTGTTCTCCCAGCTGATGAATTCGAAACTTCGAGTAAACAAATTTTCCTAATCTTTCTGTTCAAGCGCCATCTAC”, the binding signal is 0.816 RPM ratio (pull-down/input).

On to “GATGATTGTTCTCCCAGCTGATGAATTCCTATGATCGAGTAAACAAATTTTCCTAATCTTTCTGTTCAAGCGCCATCTAC”, for which the binding signal was 0.81 RPM ratio (pull-down/input).

With “GATGATTGTTCTCCCAGCTGATGAATTGCCCAAGTCGAGTAAACAAATTTTCCTAATCTTTCTGTTCAAGCGCCATCTAC”, the binding signal was 0.886 RPM ratio (pull-down/input).

Turning to “GATGATTGTTCTCCCAGCTGATGAATTCCCGTTGTCGAGTAAACAAATTTTCCTAATCTTTCTGTTCAAGCGCCATCTAC”, the binding signal is 0.907 RPM ratio (pull-down/input).

For “GATGATTGTTCTCCCAGCTGATGAATTTCCACGATCGAGTAAACAAATTTTCCTAATCTTTCTGTTCAAGCGCCATCTAC”, the binding signal was 0.845 RPM ratio (pull-down/input).

In the case of “GATGATTGTTCTCCCAGCTGATGAATTAACTGACTCGAGTAAACAAATTTTCCTAATCTTTCTGTTCAAGCGCCATCTAC”, the binding signal was 0.81 RPM ratio (pull-down/input).

Consider “GATGATTGTTCTCCCAGCTGATGAATTACAGTTATCGAGTAAACAAATTTTCCTAATCTTTCTGTTCAAGCGCCATCTAC”, for which the binding signal is 1.31 RPM ratio (pull-down/input).

With “GATGATTGTTCTCCCAGCTGATGAATTGTCTGGTTCGAGTAAACAAATTTTCCTAATCTTTCTGTTCAAGCGCCATCTAC”, the binding signal is 0.946 RPM ratio (pull-down/input).

Take “GATGATTGTTCTCCCAGCTGATGAATTTGCATATTCGAGTAAACAAATTTTCCTAATCTTTCTGTTCAAGCGCCATCTAC”: the binding signal is 1.17 RPM ratio (pull-down/input).

Take “GATGATTGTTCTCCCAGCTGATGAATTGCTAACGTCGAGTAAACAAATTTTCCTAATCTTTCTGTTCAAGCGCCATCTAC”: the binding signal is 1.04 RPM ratio (pull-down/input).

Take “GATGATTGTTCTCCCAGCTGATGAATTTAGCCGTTCGAGTAAACAAATTTTCCTAATCTTTCTGTTCAAGCGCCATCTAC”: the binding signal is 0.829 RPM ratio (pull-down/input).

As to “GATGATTGTTCTCCCAGCTGATGAATTCGTGCATTCGAGTAAACAAATTTTCCTAATCTTTCTGTTCAAGCGCCATCTAC”, the binding signal is 1.2 RPM ratio (pull-down/input).

For the sequence “GATGATTGTTCTCCCAGCTGATGAATTTGTTCTCTCGAGTAAACAAATTTTCCTAATCTTTCTGTTCAAGCGCCATCTAC”, the binding signal is 1.09 RPM ratio (pull-down/input).

Consider “GATGATTGTTCTCCCAGCTGATGAATTAGGTCGATCGAGTAAACAAATTTTCCTAATCTTTCTGTTCAAGCGCCATCTAC”, for which the binding signal is 0.891 RPM ratio (pull-down/input).

As for “GATGATTGTTCTCCCAGCTGATGAATTCGTCAGATCGAGTAAACAAATTTTCCTAATCTTTCTGTTCAAGCGCCATCTAC”, the binding signal is 0.899 RPM ratio (pull-down/input).

As for “GATGATTGTTCTCCCAGCTGATGAATTCTCTATCTCGAGTAAACAAATTTTCCTAATCTTTCTGTTCAAGCGCCATCTAC”, the binding signal is 0.845 RPM ratio (pull-down/input).

With “GATGATTGTTCTCCCAGCTGATGAATTCGTGGGCTCGAGTAAACAAATTTTCCTAATCTTTCTGTTCAAGCGCCATCTAC”, the binding signal is 0.788 RPM ratio (pull-down/input).

Take “GATGATTGTTCTCCCAGCTGATGAATTCCCTCCATCGAGTAAACAAATTTTCCTAATCTTTCTGTTCAAGCGCCATCTAC”: the binding signal was 0.855 RPM ratio (pull-down/input).

Consider “GATGATTGTTCTCCCAGCTGATGAATTAAAAATATCGAGTAAACAAATTTTCCTAATCTTTCTGTTCAAGCGCCATCTAC”, for which the binding signal is 1.35 RPM ratio (pull-down/input).

“GATGATTGTTCTCCCAGCTGATGAATTTGGAACGTCGAGTAAACAAATTTTCCTAATCTTTCTGTTCAAGCGCCATCTAC”: the binding signal is 0.853 RPM ratio (pull-down/input).

Regarding “GATGATTGTTCTCCCAGCTGATGAATTTTTGTGCTCGAGTAAACAAATTTTCCTAATCTTTCTGTTCAAGCGCCATCTAC”, the binding signal is 1.12 RPM ratio (pull-down/input).

With “GATGATTGTTCTCCCAGCTGATGAATTCAGGACTTCGAGTAAACAAATTTTCCTAATCTTTCTGTTCAAGCGCCATCTAC”, the binding signal was 0.799 RPM ratio (pull-down/input).

“GATGATTGTTCTCCCAGCTGATGAATTTTGCACGTCGAGTAAACAAATTTTCCTAATCTTTCTGTTCAAGCGCCATCTAC”: the binding signal was 0.93 RPM ratio (pull-down/input).

Turning to “GATGATTGTTCTCCCAGCTGATGAATTCACCGTATCGAGTAAACAAATTTTCCTAATCTTTCTGTTCAAGCGCCATCTAC”, the binding signal is 0.882 RPM ratio (pull-down/input).

Take “GATGATTGTTCTCCCAGCTGATGAATTCTGGCAGTCGAGTAAACAAATTTTCCTAATCTTTCTGTTCAAGCGCCATCTAC”: the binding signal was 0.848 RPM ratio (pull-down/input).

Take “GATGATTGTTCTCCCAGCTGATGAATTCCTACGTTCGAGTAAACAAATTTTCCTAATCTTTCTGTTCAAGCGCCATCTAC”: the binding signal is 0.874 RPM ratio (pull-down/input).
